# From PubChem BioAssay AID485364 (National Center for Advancing Translational Sciences (NCATS), 2010)
# Among all 360,000 compounds or so, about 11,000 (3.1%) were called active. This list was built around the results that the source calls inconclusive (neither active nor inactive); the mix of calls is not that of the screen. Calls come from the whole dose curve; as a rule, active = well fitted inhibition curve with a large enough effect; inconclusive = small, poorly fitted or top-dose-only effect; inactive = no such curve, though single readings can be large or run the other way. No potency is given beside an inconclusive call; the fits are too rough.
# Molecular target: Schistosoma mansoni thioredoxin glutathione reductase (TGR) (UniProt Q962Y6)
# Assay: qHTS Assay for the Inhibitors of Schistosoma Mansoni Peroxiredoxins; note: nearly all actives have a fitted effect of over 60% in size
# Settings: purified TGR, DTNB reduction, TNB absorbance 405 nm; activity change, negative = inhibition: at 114 µM (top of the series)
# Procedure, shortened: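 TGR 20 nM + NADPH 100 uM (dispensed conc.), cpd preinc 15 min RT; start with NADPH (500 uM addition) then DTNB (15 mM addition). Kinetic TNB absorbance, 405 nm filter. Four-parameter Hill fit across titration.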
# % is set by controls: 0 for no effect and ±100 for the full control effect; potency is the fitted concentration of half-maximal effect; tags give direction and shape of the fitted curve.
Compound,Potency,"activity change, negative = inhibition"
COc1cc(OC)c2c(O)c3c(c(-c4c5c(c(O)c6c(OC)cc(OC)cc46)CO[C@@H](C)[C@H]5O)c2c1)[C@H](O)[C@H](C)OC3,"inconclusive [inhibitor, full curve, poor fit]",–
CN(Cc1ccccc1)C(=O)c1ccccc1C(=O)O,"inconclusive [inhibitor, single point]",–
CC(=O)Oc1ccc(-c2cccc(C(=O)OCC(=O)N(C)c3ccccc3)c2)cc1,–,inactive: 0.958%
Cc1ccc(S(=O)(=O)N(C)C)cc1NC(=S)NCCCn1ccnc1,"inconclusive [inhibitor, partial curve]",–
CC(C)[C@H](NS(=O)(=O)c1cccc(Cl)c1)C(=O)OCC(=O)N1CCN(c2ccccc2)CC1,"inconclusive [inhibitor, partial curve]",–
N#Cc1ccc(C23CC4(C2)[C@H](CN(Cc2ccc(C(F)(F)F)cc2)[C@@H]4c2ccccc2)C3c2ccccc2)cc1 (stereo partly drawn),"inconclusive [inhibitor, partial curve]",–
CC(C)[C@H](NC(=O)OCc1ccccc1)C(=O)OCC(=O)Nc1ccc(N2CCOCC2)cc1,"inconclusive [inhibitor, partial curve]",–
Cc1ccc2c(c1)c1c3n2CCN(C(=O)CCl)C3CCC1 (stereo not drawn),active: 22.4 µM,–
Cc1cccc(NC(c2ccc(O)cc2)c2ccc3ccc(C)nc3c2O)n1 (stereo not drawn),active: 0.355 µM,–
O=C(N/N=C/c1ccncc1)c1ccccc1,–,inactive: 19.2%
COc1ccc(CCNC(=O)CSc2ccc(-c3ccco3)nn2)cc1,active: 12.6 µM,–
Cc1ccccc1CN1CCCNC1=O,"inconclusive [inhibitor, full curve, poor fit]",–
CC(=O)c1ccc(Oc2ncnc(N)c2[N+](=O)[O-])cc1,"inconclusive [inhibitor, full curve, poor fit]",–
CN1C(=O)c2oc3ccc(Br)cc3c(=O)c2C1c1ccncc1 (stereo not drawn),"inconclusive [inhibitor, partial curve]",–
COc1ccc(CNC(=O)c2ccc(CS(=O)Cc3cccc(Cl)c3)o2)cc1 (stereo not drawn),"inconclusive [inhibitor, partial curve]",–
COc1ccc(NC(=O)Cn2cnc3c(nc4n3CCCCC4)c2=O)cc1Cl,–,inactive: -2.78%
CCOC(=O)C1(Cc2ccccc2C)CCCN(C(=O)c2ccc(OC)o2)C1 (stereo not drawn),"inconclusive [inhibitor, partial curve]",–
COc1ccc(N2CCN(C(=O)C3CCCN(S(=O)(=O)c4ccc5c(c4)oc(=O)n5C)C3)CC2)cc1 (stereo not drawn),inactive,–
O=C(/C=C/c1ccncc1)c1ccc(NC(=O)c2ccccc2F)cc1,"inconclusive [inhibitor, partial curve]",–
CCOC(=O)c1c(C)[nH]c(NC(=O)Nc2ccc(NC(C)=O)cc2)c1C,"inconclusive [inhibitor, full curve]",–
Oc1ccc(/C=N/Nc2ccc(C(F)(F)F)cn2)cc1O,"inconclusive [inhibitor, full curve, poor fit]",–
CC(C)(C)c1cc(C(=O)N/N=C/c2cc3c(cc2Br)OCO3)n[nH]1,–,inactive: -3.65%
Cc1nc(SCC(=O)Nc2cc(S(=O)(=O)N3CCOCC3)ccc2Cl)nc(C)c1C,–,inactive: -0.519%

Compound,Potency,"activity change, negative = inhibition"
Cc1cccc(-n2nc3c(c2NC(=O)c2ccc(Br)o2)CSC3)c1,"inconclusive [inhibitor, full curve, poor fit]",–
CC(C)C(=O)N(Cc1cc(=O)[nH]c2ccccc12)c1ccccc1,"inconclusive [inhibitor, partial curve]",–
Brc1ccc(C2Nc3cccc4cccc(c34)N2)o1,"inconclusive [inhibitor, full curve]",–
Cc1ccc(C2C(C#N)=C(N)SC(N)=C2C#N)c(C)c1,"inconclusive [inhibitor, partial curve, poor fit]",–
CC(C)CC(NC(N)=O)C(=O)NCCc1ccc(Cl)cc1Cl (stereo not drawn),–,inactive: -4.92%
CC1(C)Cc2c(c(-c3ccco3)[nH]c(=O)c2C#N)CO1,"inconclusive [inhibitor, partial curve]",–
CCN(CC)c1ccc(/C=N/Nc2cccc(C)c2)c(O)c1,active: 10 µM,–
CC(C)CC(NC(=O)OC(C)(C)C)c1cn([C@@H](CCCCNC(=O)OC(C)(C)C)C(=O)N2CCN(C(=O)OC(C)(C)C)CC2)nn1 (stereo partly drawn),–,inactive: -7.47%
Cc1ccc(OCc2nnc(SC3CCc4ccccc4C3=O)n2C)cc1 (stereo not drawn),active: 17.8 µM,–
COc1ccc([N+](=O)[O-])cc1N(CC1CO1)S(=O)(=O)c1ccc(C)cc1 (stereo not drawn),–,inactive: -27.8% [at 57.1 µM]
COc1ccccc1C(=O)N1CCCC1(C#N)c1ccccc1 (stereo not drawn),"inconclusive [inhibitor, single point]",–
C=CCSc1nnc(NC(=O)CCN2C(=O)C3CC=CCC3C2=O)s1 (stereo not drawn),–,inactive: -33.6%
COc1ccc(COC(=O)N/C=C/c2ccco2)cc1,"inconclusive [inhibitor, partial curve]",–
COc1ccc2cc3cc(C(=O)NCc4ccco4)oc3nc2c1,"inconclusive [inhibitor, partial curve]",–
Cc1nnc(SC2CC(=O)N(c3ccccc3)C2=O)s1 (stereo not drawn),active: 2.51 µM,–
CC1(OC(=O)C2CCCC2)C(=O)C=C2C=C(c3ccsc3)N(CCc3c[nH]c4ccccc34)C=C2C1=O (stereo not drawn),"inconclusive [inhibitor, full curve]",–
C=CCOc1cccc(C2C(C(=O)c3ccc(C)o3)=C(O)C(=O)N2Cc2ccncc2)c1 (stereo not drawn),"inconclusive [inhibitor, partial curve]",–
O=C(Cn1cnc2cc([N+](=O)[O-])ccc2c1=O)Nc1ccc(N2CCOCC2)cc1,–,inactive: 5.19%
Cn1ncc(Cl)c1C(=O)NC(=S)Nc1sc2c(c1C#N)CCCCC2,"inconclusive [inhibitor, full curve]",–
c1coc(-c2nnc(-c3cccs3)o2)c1,–,inactive: -0.856%
COc1cc(C(=O)NC(=S)NNC(=O)c2cnccn2)cc(OC)c1OC,–,inactive: -7.16%
OC1CNCc2cc3c(cc21)OCCO3 (stereo not drawn),"inconclusive [inhibitor, partial curve]",–
COc1ccc(/C(C)=N/NC(=O)CNC(=O)/C=C\c2ccco2)cc1,"inconclusive [inhibitor, partial curve]",–

Compound,Potency,"activity change, negative = inhibition"
O=C(NCc1ccco1)c1ccc2nc3sc4c(c3c(=O)n2c1)CCCC4,active: 11.2 µM,–
COc1cccc(C(c2c(N)n(C)c(=O)n(C)c2=O)C(C)[N+](=O)[O-])c1 (stereo not drawn),"inconclusive [inhibitor, partial curve]",–
Cc1c(NC(=O)/C=C/C(=O)O)cccc1[N+](=O)[O-],active: 50.1 µM,–
O=C(CCc1ccc(S(=O)(=O)NC2CCCCC2)cc1)NCc1ccc(Cl)cc1,"inconclusive [inhibitor, single point]",–
c1ccc(Nc2c3c(nc4ncnn24)CCC3)cc1,"inconclusive [inhibitor, partial curve]",–
O=C1C[C@H]2[C@H](CO)[C@@H](OC(=O)c3ccc(-c4ccccc4)cc3)C[C@H]2O1,"inconclusive [inhibitor, single point]",–
Fc1ccccc1N1CCN(Cc2cnc(Cl)s2)CC1,"inconclusive [inhibitor, full curve]",–
Cn1nnnc1SCCNCC#Cc1ccccc1,–,inactive: -23.2%
O=[N+]([O-])c1cc(/C=N/N/C(=N/c2ccccn2)c2ccccn2)ccc1O,"inconclusive [inhibitor, partial curve]",–
CN(Cc1ccc(-n2cccn2)cc1)C(=O)c1cnn2c1NC(c1ccco1)CC2C(F)(F)F (stereo not drawn),"inconclusive [inhibitor, partial curve]",–
CCOC(=O)C1Nc2ccc(C(=O)O)cc2C2C=CCC12 (stereo not drawn),"inconclusive [inhibitor, full curve]",–
Cc1ccc2c(c1)/C(=C/c1ccco1)C(=O)N2,"inconclusive [inhibitor, single point]",–
COc1cccc(-c2nc(CS(=O)(=O)CC(=O)NCCc3cc(OC)ccc3OC)c(C)o2)c1,"inconclusive [inhibitor, full curve]",–
O=C(CCl)Nc1cccc(Oc2ccccc2)c1,active: 11.2 µM,–
CC[N+](CC)(CC)CCOc1ccc(/C=C/c2ccccc2)cc1,"inconclusive [inhibitor, partial curve]",–
CCN1CCc2c(sc(-n3cccc3)c2C(CCC(C)C)NC(=O)NCCC(=O)OC)C1 (stereo not drawn),"inconclusive [inhibitor, partial curve]",–
CCCn1c(=N)c(C(=O)NC2CCCCC2)cc2c(=O)n3cc(C)ccc3nc21,–,inactive: -1.87%
Cc1cc(-c2csc(N)n2)c(C)n1C,"inconclusive [inhibitor, full curve]",–
COC(=O)c1[nH]c(C)c(/C(O)=C2\C(=O)C(=O)N(CCN3CCOCC3)C2c2cccs2)c1C (stereo not drawn),"inconclusive [inhibitor, partial curve]",–
COc1ccc(OC)c(N/C(C)=C/C(=O)c2ccncc2)c1,"inconclusive [inhibitor, single point]",–
CCOC(=O)C1=C(CSc2nc3c(cc2C#N)CN(C)CC3)OC(N)=C(C#N)C1c1ccncc1 (stereo not drawn),"inconclusive [inhibitor, partial curve, poor fit]",–
O=C(CNC(=O)c1ccccc1O)N/N=C/c1cc(Br)ccc1OC(=O)/C=C/c1ccco1,"inconclusive [inhibitor, partial curve]",–
